The list shows a part of the results.
What was measured:
Assay in all cases: glycan array binding signal (z-score within array); higher = stronger binding
Conditions in all cases: glycan notation: IUPAC condensed, linker removed
[1] = target: Fuc(a1-2)Gal6S(b1-3)GlcNAc6S
How it was run: (§1)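 Glycan array data were curated from 3228 arrays in the Consortium for Functional Glycomics database and kept only where the protein sequence was available. Glycan names were converted to IUPAC-condensed notation, and columns mapping to the same glycan were averaged. The binding signal is a within-array Z-score, averaged across arrays of the same protein sequence at different concentrations or buffers and across linkers. Negative Z-scores can be read as non-binding.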

Fuc(a1-2)Gal6S(b1-4)Glc = target: Fuc(a1-2)Gal6S(b1-4)Glc
How it was run: as §1

[2] = target: Fuc(a1-2)Gal6S(b1-4)Glc6S
How it was run: as §1

Fuc(a1-2)[Gal(a1-3)]Gal = target: Fuc(a1-2)[Gal(a1-3)]Gal
How it was run: as §1

[3] = target: Fuc(a1-2)[Gal(a1-3)]Gal(b1-3)GalNAc
How it was run: as §1

[4] = target: Fuc(a1-2)[Gal(a1-3)]Gal(b1-3)GalNAc(b1-3)Gal(a1-4)Gal(b1-4)Glc
How it was run: as §1

[5] = target: Fuc(a1-2)[Gal(a1-3)]Gal(b1-3)GlcNAc
How it was run: as §1

[6] = target: Fuc(a1-2)[Gal(a1-3)]Gal(b1-3)GlcNAc(b1-2)Man(a1-3)[Fuc(a1-2)[Gal(a1-3)]Gal(b1-3)GlcNAc(b1-2)Man(a1-6)]Man(b1-4)GlcNAc(b1-4)GlcNAc
How it was run: as §1

[7] = target: Fuc(a1-2)[Gal(a1-3)]Gal(b1-3)GlcNAc(b1-2)Man(a1-3)[Fuc(a1-2)[Gal(a1-3)]Gal(b1-3)GlcNAc(b1-2)Man(a1-6)]Man(b1-4)GlcNAc(b1-4)[Fuc(a1-6)]GlcNAc
How it was run: as §1

[8] = target: Fuc(a1-2)[Gal(a1-3)]Gal(b1-3)GlcNAc(b1-3)GalNAc
How it was run: as §1

[9] = target: Fuc(a1-2)[Gal(a1-3)]Gal(b1-3)GlcNAc(b1-6)GalNAc
How it was run: as §1

[10] = target: Fuc(a1-2)[Gal(a1-3)]Gal(b1-4)Glc
How it was run: as §1

[11] = target: Fuc(a1-2)[Gal(a1-3)]Gal(b1-4)GlcNAc
How it was run: as §1

[12] = target: Fuc(a1-2)[Gal(a1-3)]Gal(b1-4)GlcNAc(b1-2)Man
How it was run: as §1

[13] = target: Fuc(a1-2)[Gal(a1-3)]Gal(b1-4)GlcNAc(b1-2)Man(a1-3)[Fuc(a1-2)[Gal(a1-3)]Gal(b1-4)GlcNAc(b1-2)Man(a1-6)]Man(b1-4)GlcNAc(b1-4)GlcNAc
How it was run: as §1

[14] = target: Fuc(a1-2)[Gal(a1-3)]Gal(b1-4)GlcNAc(b1-2)Man(a1-3)[Fuc(a1-2)[Gal(a1-3)]Gal(b1-4)GlcNAc(b1-2)Man(a1-6)]Man(b1-4)GlcNAc(b1-4)[Fuc(a1-6)]GlcNAc
How it was run: as §1

[15] = target: Fuc(a1-2)[Gal(a1-3)]Gal(b1-4)GlcNAc(b1-3)GalNAc
How it was run: as §1

[16] = target: Fuc(a1-2)[Gal(a1-3)]Gal(b1-4)GlcNAc(b1-3)[Fuc(a1-2)[Gal(a1-3)]Gal(b1-4)GlcNAc(b1-6)]GalNAc
How it was run: as §1

[17] = target: Fuc(a1-2)[Gal(a1-3)]Gal(b1-4)GlcNAc(b1-6)GalNAc
How it was run: as §1

[18] = target: Fuc(a1-2)[Gal(a1-3)]Gal(b1-4)[Fuc(a1-3)]Glc
How it was run: as §1

[19] = target: Fuc(a1-2)[Gal(a1-3)]Gal(b1-4)[Fuc(a1-3)]GlcNAc
How it was run: as §1

[20] = target: Fuc(a1-2)[Gal(a1-3)]Gal(b1-4)[Fuc(a1-3)]GlcNAc(b1-3)GalNAc
How it was run: as §1

[21] = target: Fuc(a1-2)[Gal(a1-4)]Gal(b1-4)GlcNAc
How it was run: as §1

[22] = target: Fuc(a1-2)[GalNAc(a1-3)]Gal
How it was run: as §1

[23] = target: Fuc(a1-2)[GalNAc(a1-3)]Gal(b1-3)GalNAc(a1-3)[Fuc(a1-2)]Gal(b1-4)GlcNAc
How it was run: as §1

[24] = target: Fuc(a1-2)[GalNAc(a1-3)]Gal(b1-3)GalNAc(b1-3)Gal(a1-4)Gal(b1-4)Glc
How it was run: as §1

[25] = target: Fuc(a1-2)[GalNAc(a1-3)]Gal(b1-3)GlcNAc
How it was run: as §1

[26] = target: Fuc(a1-2)[GalNAc(a1-3)]Gal(b1-3)GlcNAc(b1-2)Man(a1-3)[Fuc(a1-2)[GalNAc(a1-3)]Gal(b1-3)GlcNAc(b1-2)Man(a1-6)]Man(b1-4)GlcNAc(b1-4)GlcNAc
How it was run: as §1

[27] = target: Fuc(a1-2)[GalNAc(a1-3)]Gal(b1-3)GlcNAc(b1-2)Man(a1-3)[Fuc(a1-2)[GalNAc(a1-3)]Gal(b1-3)GlcNAc(b1-2)Man(a1-6)]Man(b1-4)GlcNAc(b1-4)[Fuc(a1-6)]GlcNAc
How it was run: as §1

[28] = target: Fuc(a1-2)[GalNAc(a1-3)]Gal(b1-3)GlcNAc(b1-3)GalNAc
How it was run: as §1

[29] = target: Fuc(a1-2)[GalNAc(a1-3)]Gal(b1-3)GlcNAc(b1-6)GalNAc
How it was run: as §1

[30] = target: Fuc(a1-2)[GalNAc(a1-3)]Gal(b1-4)Glc
How it was run: as §1

[31] = target: Fuc(a1-2)[GalNAc(a1-3)]Gal(b1-4)GlcNAc
How it was run: as §1

[32] = target: Fuc(a1-2)[GalNAc(a1-3)]Gal(b1-4)GlcNAc(b1-2)Man
How it was run: as §1

[33] = target: Fuc(a1-2)[GalNAc(a1-3)]Gal(b1-4)GlcNAc(b1-2)Man(a1-3)[Fuc(a1-2)[GalNAc(a1-3)]Gal(b1-4)GlcNAc(b1-2)Man(a1-6)]Man(b1-4)GlcNAc(b1-4)GlcNAc
How it was run: as §1

[34] = target: Fuc(a1-2)[GalNAc(a1-3)]Gal(b1-4)GlcNAc(b1-2)Man(a1-3)[Fuc(a1-2)[GalNAc(a1-3)]Gal(b1-4)GlcNAc(b1-2)Man(a1-6)]Man(b1-4)GlcNAc(b1-4)[Fuc(a1-6)]GlcNAc
How it was run: as §1

[35] = target: Fuc(a1-2)[GalNAc(a1-3)]Gal(b1-4)GlcNAc(b1-3)Gal(b1-4)GlcNAc
How it was run: as §1

[36] = target: Fuc(a1-2)[GalNAc(a1-3)]Gal(b1-4)GlcNAc(b1-3)Gal(b1-4)GlcNAc(b1-3)Gal(b1-4)GlcNAc
How it was run: as §1

[37] = target: Fuc(a1-2)[GalNAc(a1-3)]Gal(b1-4)GlcNAc(b1-3)GalNAc
How it was run: as §1

[38] = target: Fuc(a1-2)[GalNAc(a1-3)]Gal(b1-4)GlcNAc(b1-3)[Fuc(a1-2)[GalNAc(a1-3)]Gal(b1-4)GlcNAc(b1-6)]GalNAc
How it was run: as §1

[39] = target: Fuc(a1-2)[GalNAc(a1-3)]Gal(b1-4)GlcNAc(b1-6)GalNAc
How it was run: as §1

[40] = target: Fuc(a1-2)[GalNAc(a1-3)]Gal(b1-4)[Fuc(a1-3)]GlcNAc
How it was run: as §1

[41] = target: Fuc(a1-2)[GalNAc(a1-3)]Gal(b1-4)[Fuc(a1-3)]GlcNAc(b1-3)GalNAc
How it was run: as §1

[42] = target: Fuc(a1-2)[GalNAc(a1-4)]Gal(b1-4)GlcNAc
How it was run: as §1

[43] = target: Fuc(a1-2)[GalNAc(b1-3)]Gal
How it was run: as §1

B1: Clec18C (Homo sapiens) (protein)
chain: MLHPETSPGRGHLLAVLLALLGTAWAEVWPPQLQEQAPMAGALNRKESFLLLSLHNRLRSWVQPPAADMRRLDWSDSLAQLAQARAALCGTPTPSLASGLWRTLQVGWNMQLLPAGLVSFVEVVSLWFAEGQRYSHAAGECARNATCTHYTQLVWATSSQLGCGRHLCSAGQAAIEAFVCAYSPRGNWEVNGKTIVPYKKGAWCSLCTASVSGCFKAWDHAGGLCEVPRNPCRMSCQNHGRLNISTCHCHCPPGYTGRYCQVRCSLQCVHGRLREEECSCVCDIGYGGAQCATKVHFPFHTCDLRIDGDCFMVSSEADTYYRARMKCQRKGGVLAQIKSQKVQDILAFYLGRLETTNEVIDSDFETRNFWIGLTYKTAKDSFRWATGEHQAFTSFAFGQPDNHGFGNCVELQASAAFNWNNQRCKTRNRYICQFAQEHISRWGPGS
glycan array binding signal (z-score) [1]: -0.032 | glycan array binding signal (z-score) (Fuc(a1-2)Gal6S(b1-4)Glc): -0.452 | glycan array binding signal (z-score) [2]: -0.262 | glycan array binding signal (z-score) (Fuc(a1-2)[Gal(a1-3)]Gal): -0.382 | glycan array binding signal (z-score) [3]: -0.384 | glycan array binding signal (z-score) [4]: -0.571 | glycan array binding signal (z-score) [5]: -0.435 | glycan array binding signal (z-score) [6]: -0.479 | glycan array binding signal (z-score) [7]: -0.398 | glycan array binding signal (z-score) [8]: 0.473 | glycan array binding signal (z-score) [9]: -0.329 | glycan array binding signal (z-score) [10]: -0.393 | glycan array binding signal (z-score) [11]: -0.591 | glycan array binding signal (z-score) [12]: -0.021 | glycan array binding signal (z-score) [13]: 1.04 | glycan array binding signal (z-score) [14]: 0.417 | glycan array binding signal (z-score) [15]: -0.517 | glycan array binding signal (z-score) [16]: -0.31 | glycan array binding signal (z-score) [17]: -0.568 | glycan array binding signal (z-score) [18]: -0.56 | glycan array binding signal (z-score) [19]: 0.762 | glycan array binding signal (z-score) [20]: -0.17 | glycan array binding signal (z-score) [21]: -0.135 | glycan array binding signal (z-score) [22]: 0.158 | glycan array binding signal (z-score) [23]: -0.467 | glycan array binding signal (z-score) [24]: 0.597 | glycan array binding signal (z-score) [25]: -0.273 | glycan array binding signal (z-score) [26]: -0.181 | glycan array binding signal (z-score) [27]: -0.225 | glycan array binding signal (z-score) [28]: -0.186 | glycan array binding signal (z-score) [29]: -0.223 | glycan array binding signal (z-score) [30]: -0.557 | glycan array binding signal (z-score) [31]: -0.476 | glycan array binding signal (z-score) [32]: -0.166 | glycan array binding signal (z-score) [33]: -0.427 | glycan array binding signal (z-score) [34]: -0.451 | glycan array binding signal (z-score) [35]: -0.522 | glycan array binding signal (z-score) [36]: -0.308 | glycan array binding signal (z-score) [37]: -0.571 | glycan array binding signal (z-score) [38]: -0.427 | glycan array binding signal (z-score) [39]: -0.11 | glycan array binding signal (z-score) [40]: -0.156 | glycan array binding signal (z-score) [41]: 0.975 | glycan array binding signal (z-score) [42]: 0.446 | glycan array binding signal (z-score) [43]: -0.191

Source: the supplement of paper PMC8728848
